Here are results for 13 compounds from the supplement of paper PMC4604168 (melanoma cell lines).

SMILES strings stand for the structures. The list shows a part of the results. Single values are uncertain, as repeats are few or missing.
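Note: cells treated in 1,536-well plates, then fixed and DAPI-stained, with nuclei counted from automated high-throughput microscope images.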

This assay has as its system A375. As to the kind of experiment: cell count relative to DMSO control; melanoma cells; higher = more viable cells. To be noted: library dose: standard library concentration; 72 h.
`Cc1ccc(Nc2nccc(N(C)c3ccc4c(C)n(C)nc4c3)n2)cc1S(N)(=O)=O` [Pazopanib] + O=C(O)c1ccc2c(c1)nc(Nc1cccc(Cl)c1)c1ccncc12 [CX4945] (first compound 2 µM, partner dose 2 µM) displayed a cell count of 68%. To `CC1(C)CCC(c2ccc(Cl)cc2)=C(CN2CCN(c3ccc(C(=O)NS(=O)(=O)c4ccc(N[C@H](CCN5CCOCC5)CSc5ccccc5)c(S(=O)(=O)C(F)(F)F)c4)cc3)CC2)C1` + Nc1cccc2c1CN(C1CCC(=O)NC1=O)C2=O [lenalidomide] (first compound 2 µM, partner dose 5 µM) belongs 77.2%; to `O=C(/C=C/c1cccnc1)NCCCCC1CCN(C(=O)c2ccccc2)CC1` + CCN(CC)CCNC(=O)c1c(C)[nH]c(/C=C2\C(=O)Nc3ccc(F)cc32)c1C [sunitinib] (first compound 0.05 µM, partner dose 2 µM), 90.6%. Compound `Cc1ccc(Nc2nccc(N(C)c3ccc4c(C)n(C)nc4c3)n2)cc1S(N)(=O)=O` [Pazopanib] + CO[C@H]1C[C@@H]2CC[C@@H](C)[C@@](O)(O2)C(=O)C(=O)N2CCCC[C@H]2C(=O)O[C@H]([C@H](C)C[C@@H]2CC[C@@H](OCCO)[C@H](OC)C2)CC(=O)[C@H](C)/C=C(\C)[C@@H](O)[C@@H](OC)C(=O)[C@H](C)C[C@H](C)/C=C/C=C/C=C/1C [everolimus] (first compound 2 µM, partner dose 0.1 µM) yielded a cell count of 90.7%. The compound `Cc1ccc(Nc2nccc(N(C)c3ccc4c(C)n(C)nc4c3)n2)cc1S(N)(=O)=O` [Pazopanib] + OCc1c[nH]c2ccccc12 [Indole-3-carbinol] (first compound 2 µM, partner dose 4 µM) displayed a cell count of 91.4%. To `O=C(/C=C/c1cccnc1)NCCCCC1CCN(C(=O)c2ccccc2)CC1` + CN(C)S(=O)(=O)c1ccc2c(c1)/C(=C/c1cc3c([nH]1)CCCC3)C(=O)N2 [SU6656] (first compound 0.05 µM, partner dose 2 µM) belongs 155%. The result for `O=C(/C=C/c1cccnc1)NCCCCC1CCN(C(=O)c2ccccc2)CC1` + CN(c1ncccc1CNc1nc(Nc2ccc3c(c2)CC(=O)N3)ncc1C(F)(F)F)S(C)(=O)=O [PF562271] (first compound 0.05 µM, partner dose 0.4 µM) reads 78%; that for `O=C(/C=C/c1cccnc1)NCCCCC1CCN(C(=O)c2ccccc2)CC1` + CN(NC(=O)CC(=O)NN(C)C(=S)c1ccccc1)C(=S)c1ccccc1 [STA4783] (first compound 0.05 µM, partner dose 0.03 µM), 123%. `O=C(/C=C/c1cccnc1)NCCCCC1CCN(C(=O)c2ccccc2)CC1` + Cn1c(=O)n(-c2ccc(C(C)(C)C#N)cc2)c2c3cc(-c4cnc5ccccc5c4)ccc3ncc21 [NVP-BEZ235] (first compound 0.05 µM, partner dose 0.02 µM) had a cell count of 70.9%. For the compound `CC1(C)CCC(c2ccc(Cl)cc2)=C(CN2CCN(c3ccc(C(=O)NS(=O)(=O)c4ccc(N[C@H](CCN5CCOCC5)CSc5ccccc5)c(S(=O)(=O)C(F)(F)F)c4)cc3)CC2)C1` + CO[C@H]1C[C@@H]2CC[C@@H](C)[C@@](O)(O2)C(=O)C(=O)N2CCCC[C@H]2C(=O)O[C@H]([C@H](C)C[C@@H]2CC[C@@H](OCCO)[C@H](OC)C2)CC(=O)[C@H](C)/C=C(\C)[C@@H](O)[C@@H](OC)C(=O)[C@H](C)C[C@H](C)/C=C/C=C/C=C/1C [everolimus] (first compound 2 µM, partner dose 0.1 µM), the cell count was 61.6%. In the case of `O=C(/C=C/c1cccnc1)NCCCCC1CCN(C(=O)c2ccccc2)CC1` + OCc1c[nH]c2ccccc12 [Indole-3-carbinol] (first compound 0.05 µM, partner dose 4 µM), the cell count was determined as 90.8%. `CC1(C)CCC(c2ccc(Cl)cc2)=C(CN2CCN(c3ccc(C(=O)NS(=O)(=O)c4ccc(N[C@H](CCN5CCOCC5)CSc5ccccc5)c(S(=O)(=O)C(F)(F)F)c4)cc3)CC2)C1` + COc1ccc2c(c1)CCC1C2CCC2(C)C(NCCCCCCN3C(=O)C=CC3=O)CCC12 [U73122] (first compound 2 µM, partner dose 2 µM) came in with a cell count of 70.8%. The result for `Cc1ccc(Nc2nccc(N(C)c3ccc4c(C)n(C)nc4c3)n2)cc1S(N)(=O)=O` [Pazopanib] + COc1cc2c(Oc3ccc4[nH]c(C)cc4c3F)ncnc2cc1OCCCN1CCCC1 [cediranib] (first compound 2 µM, partner dose 2 µM) reads 112%.
